Laboratory results: the RNAGym collection of RNA variant scans (doi:10.1093/nar/gkz1192)
Read counts are not given, so values of variants with three or more changes are uncertain.

B1: CPEB3 Ribozyme (parent)
chain: UAACAGGGGGCCACAGCAGAAGCGUUCACGUCGCAGCCCCUGUCAGAUUCUGGUGAAUCUGCGAAUUCUGCUGUAUAUCUC

Variants of: B1
Test: self-cleavage, relative activity (ratio to wild type); higher = more cleavage; in vitro, sequencing
Outline: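 Barcoded CPEB3 ribozyme mutants, produced by rounds of error-prone PCR, self-cleaved while being transcribed with T7 RNA polymerase for 5 hours at 37°C and during a subsequent 15 min DNase I step before EDTA was added. Sequencing of template-switched cDNA on Illumina gave cleaved and total reads, and DNA sequencing assigned barcodes to variants. Each variant's relative activity is its cleaved/total read fraction divided by the unmutated ribozyme's fraction, averaged across three batches. A variant needed a minimum of 5 reads.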
For G10A G52A U76C, the self-cleavage was 0.4. G10A G52C U76C showed a self-cleavage of 0.24. Variant G10A G63A A64G U69C has a self-cleavage of 0.14. Work on G10A G63U U80C yielded a self-cleavage of 0.36. G10A G73A A77U gave a self-cleavage of 0.56. In the case of G10A U25A A28G C38A U74C U80A, the self-cleavage is reported as 0.04. Work on G10A U25A A56G U74A U78C yielded a self-cleavage of 0.21. G10A U25A U26C G46U U49C showed a self-cleavage of 0.05. Variant G10A U25A U48C U80C has a self-cleavage of 0.06. G10A U25A U80C gave a self-cleavage of 0.21. Work on G10A U25C A28G U48C yielded a self-cleavage of 0.07. Variant G10A U25C A35G A47G has a self-cleavage of 0.03. In the case of G10A U25C A35G U49C U54C A75G, the self-cleavage is reported as 0.03. For G10A U25C A35U U43C U74A, the self-cleavage was 0.04. Work on G10A U25C A64U yielded a self-cleavage of 0.14. With G10A U25C C40U U58C U60C the self-cleavage was 0. G10A U25C G52C G70A gave a self-cleavage of 0.09. G10A U25C G63A showed a self-cleavage of 0.19. G10A U25C U26C A57U gave a self-cleavage of 0.2. Work on G10A U25C U31A G53C C71U yielded a self-cleavage of 0.05. In the case of G10A U25C U31C A57G U60C, the self-cleavage is reported as 0.08. With G10A U25C U31C U72C the self-cleavage was 0.07. With G10A U25C U41C the self-cleavage was 0.26. Variant G10A U25C U41C A77G has a self-cleavage of 0.03. G10A U25C U48G U74C C81U showed a self-cleavage of 0.05. Variant G10A U25C U49A U51A G70U has a self-cleavage of 0.16. In the case of G10A U25C U49C U67A U72G, the self-cleavage is reported as 0.09. G10A U25C U54C U58A C62A gave a self-cleavage of 0.1. Variant G10A U25C U67A has a self-cleavage of 0.2. G10A U25C U72C gave a self-cleavage of 0.17. With G10A U25G A47G U49A U69C U72C the self-cleavage was 0.04. Work on G10A U26A A28U U41A U58C U69C yielded a self-cleavage of 0.07. Work on G10A U26A U41A U51C yielded a self-cleavage of 0.16. Variant G10A U26A U41C A47G G73A has a self-cleavage of 0.72. Variant G10A U26A U54A U60C U69C has a self-cleavage of 0.21. For G10A U26C A35G U67C, the self-cleavage was 0.14. In the case of G10A U26C A45C A56G A64G U72C, the self-cleavage is reported as 0.18. In the case of G10A U26C C27A U66C, the self-cleavage is reported as 0.03. In the case of G10A U26C G33A, the self-cleavage is reported as 0.05. Variant G10A U26C U31C A47G has a self-cleavage of 0.06. Variant G10A U26C U31C U41C A45U U74A has a self-cleavage of 0.03. Variant G10A U26C U69C A75G U78C has a self-cleavage of 0.07. G10A U26C U74A gave a self-cleavage of 0.06. Variant G10A U26C U80C has a self-cleavage of 0.09. Work on G10A U26G A28G A47G U48C yielded a self-cleavage of 0.24. For G10A U26G U54C, the self-cleavage was 0.14. For G10A U31C C39U G73A A75G U78C, the self-cleavage was 0.04. Work on G10A U31C G70U U72A yielded a self-cleavage of 0.1. Work on G10A U31C U49A yielded a self-cleavage of 0.06. Variant G10A U31C U67A has a self-cleavage of 0.17. G10A U31C U67C showed a self-cleavage of 0.14. For G10A U31G A35G A64U U80A, the self-cleavage was 0.15. G10A U41A U51C A65G gave a self-cleavage of 0.16. G10A U41A U67C U80A gave a self-cleavage of 0.05. For G10A U41C A45U U51G, the self-cleavage was 0.17. Work on G10A U41C A56C U66A yielded a self-cleavage of 0.06. With G10A U41C A64G the self-cleavage was 0.37. In the case of G10A U41C G63U U66A, the self-cleavage is reported as 0.18. Variant G10A U41C U49G U54C U60A U69A C71A has a self-cleavage of 0.02. With G10A U41C U51C the self-cleavage was 0.34. For G10A U41G A45G, the self-cleavage was 0.07. Variant G10A U43A A64G has a self-cleavage of 0.07. Variant G10A U43A U49C U72A has a self-cleavage of 0.12. G10A U43A U60A U72A A77G showed a self-cleavage of 0.05. G10A U43A U69C gave a self-cleavage of 0.06. G10A U43C A47G U69C U72C U74A gave a self-cleavage of 0.04. G10A U43C A47U U74A U78A gave a self-cleavage of 0.05. For G10A U43C U48C U78C, the self-cleavage was 0.04. G10A U43C U80C showed a self-cleavage of 0.16. Variant G10A U43G U49C U69C A77G has a self-cleavage of 0.11. G10A U48C A56G A57U showed a self-cleavage of 0.12. Variant G10A U48C A64G A65G has a self-cleavage of 0.14. In the case of G10A U48C U54A U58C, the self-cleavage is reported as 0.06. Work on G10A U48C U60C yielded a self-cleavage of 0.11. With G10A U49A U74C the self-cleavage was 0.12. G10A U49C A57G U67C U69A U80C showed a self-cleavage of 0.13. With G10A U49C G52C U69A the self-cleavage was 0.05. With G10A U49G U72A U78C the self-cleavage was 0.04. Work on G10A U49G U72C yielded a self-cleavage of 0.06. With G10A U51C A64U the self-cleavage was 0.11. G10A U51G U72C gave a self-cleavage of 0.23. With G10A U54C A56G U78A the self-cleavage was 0.06. Work on G10A U54C A64U yielded a self-cleavage of 0.24.
